{"source": "the supplement of paper PMC8728848", "binders": {"B1": {"name": "CIH1 (Colletotrichum higginsianum) (protein)", "chain": "LPQATPTTPTPTSASAAATISATSSPTCSPGPVIDYTVVSGDTLTIISQRFSSGICNIADASGITNPNFLSLGQVLQVPTYVCTPDNTSCLAKEGSDTCVEGGPATHTIVAGDTFFLVAQSLGLDVNALLAANEGVDPLLLQIGDVINIPVC"}}, "experiment_in_all_cases": "glycan array binding signal (z-score within array); higher = stronger binding", "conditions_in_all_cases": "glycan notation: IUPAC condensed, linker removed", "key": {"[1]": {"molecular_target": "GlcNAc(b1-4)GlcNAc(b1-4)GlcNAc(b1-4)GlcNAc(b1-4)GlcNAc(b1-4)GlcNAc", "procedure,_shortened": "(§1)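 Glycan array data were curated from 3228 arrays in the Consortium for Functional Glycomics database and kept only where the protein sequence was available. Glycan names were converted to IUPAC-condensed notation, and columns mapping to the same glycan were averaged. The binding signal is a within-array Z-score, averaged across arrays of the same protein sequence at different concentrations or buffers and across linkers. Negative Z-scores can be read as non-binding.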"}, "[2]": {"molecular_target": "GlcNAc(b1-4)[GlcNAc(b1-6)]GalNAc", "procedure,_shortened": "as §1"}, "[3]": {"molecular_target": "GlcNAc(b1-6)Gal(b1-4)GlcNAc", "procedure,_shortened": "as §1"}, "GlcNAc(b1-6)GalNAc": {"molecular_target": "GlcNAc(b1-6)GalNAc", "procedure,_shortened": "as §1"}, "GlcNAc3Prop(b1-4)GlcNAc": {"molecular_target": "GlcNAc3Prop(b1-4)GlcNAc", "procedure,_shortened": "as §1"}, "[4]": {"molecular_target": "GlcNAc6S(b1-3)Gal(b1-4)GlcNAc", "procedure,_shortened": "as §1"}, "Kdn(a2-3)Gal(b1-3)GalNAc": {"molecular_target": "Kdn(a2-3)Gal(b1-3)GalNAc", "procedure,_shortened": "as §1"}, "Kdn(a2-3)Gal(b1-3)GlcNAc": {"molecular_target": "Kdn(a2-3)Gal(b1-3)GlcNAc", "procedure,_shortened": "as §1"}, "Kdn(a2-3)Gal(b1-4)Glc": {"molecular_target": "Kdn(a2-3)Gal(b1-4)Glc", "procedure,_shortened": "as §1"}, "Kdn(a2-3)Gal(b1-4)GlcNAc": {"molecular_target": "Kdn(a2-3)Gal(b1-4)GlcNAc", "procedure,_shortened": "as §1"}, "[5]": {"molecular_target": "Kdn(a2-3)Gal(b1-4)[Fuc(a1-3)]GlcNAc", "procedure,_shortened": "as §1"}, "Kdn(a2-6)Gal(b1-4)GlcNAc": {"molecular_target": "Kdn(a2-6)Gal(b1-4)GlcNAc", "procedure,_shortened": "as §1"}, "[6]": {"molecular_target": "Man(a1-2)Man(a1-2)Man(a1-3)Man", "procedure,_shortened": "as §1"}, "[7]": {"molecular_target": "Man(a1-2)Man(a1-2)Man(a1-6)[Man(a1-3)]Man", "procedure,_shortened": "as §1"}, "Man(a1-2)Man(a1-3)Man": {"molecular_target": "Man(a1-2)Man(a1-3)Man", "procedure,_shortened": "as §1"}, "[8]": {"molecular_target": "Man(a1-2)Man(a1-3)[Man(a1-2)Man(a1-6)]Man", "procedure,_shortened": "as §1"}, "[9]": {"molecular_target": "Man(a1-2)Man(a1-3)[Man(a1-2)Man(a1-6)]Man(a1-6)[Man(a1-2)Man(a1-2)Man(a1-3)]Man", "procedure,_shortened": "as §1"}, "[10]": {"molecular_target": "Man(a1-2)Man(a1-3)[Man(a1-2)Man(a1-6)]Man(a1-6)[Man(a1-2)Man(a1-2)Man(a1-3)]Man(b1-4)GlcNAc(b1-4)GlcNAc", "procedure,_shortened": "as §1"}, "[11]": {"molecular_target": "Man(a1-2)Man(a1-3)[Man(a1-6)]Man(a1-6)[Man(a1-2)Man(a1-3)]Man(b1-4)GlcNAc(b1-4)GlcNAc", "procedure,_shortened": "as §1"}, "[12]": {"molecular_target": "Man(a1-2)Man(a1-6)[Man(a1-3)]Man(a1-6)[Man(a1-2)Man(a1-2)Man(a1-3)]Man", "procedure,_shortened": "as §1"}, "[13]": {"molecular_target": "Man(a1-2)Man(a1-6)[Man(a1-3)]Man(a1-6)[Man(a1-2)Man(a1-2)Man(a1-3)]Man(b1-4)GlcNAc(b1-4)GlcNAc", "procedure,_shortened": "as §1"}, "Man(a1-3)[Man(a1-6)]Man": {"molecular_target": "Man(a1-3)[Man(a1-6)]Man", "procedure,_shortened": "as §1"}, "[14]": {"molecular_target": "Man(a1-3)[Man(a1-6)]Man(a1-6)[Man(a1-2)Man(a1-3)]Man(b1-4)GlcNAc(b1-4)GlcNAc", "procedure,_shortened": "as §1"}, "[15]": {"molecular_target": "Man(a1-3)[Man(a1-6)]Man(a1-6)[Man(a1-3)]Man", "procedure,_shortened": "as §1"}, "[16]": {"molecular_target": "Man(a1-3)[Man(a1-6)]Man(a1-6)[Man(a1-3)]Man(b1-4)GlcNAc(b1-4)GlcNAc", "procedure,_shortened": "as §1"}, "[17]": {"molecular_target": "Man(a1-3)[Man(a1-6)]Man(b1-4)GlcNAc(b1-4)GlcNAc", "procedure,_shortened": "as §1"}, "[18]": {"molecular_target": "Man(a1-3)[Man(a1-6)]Man(b1-4)GlcNAc(b1-4)[Fuc(a1-6)]GlcNAc", "procedure,_shortened": "as §1"}, "Man(a1-6)Man": {"molecular_target": "Man(a1-6)Man", "procedure,_shortened": "as §1"}, "Man(b1-4)GlcNAc": {"molecular_target": "Man(b1-4)GlcNAc", "procedure,_shortened": "as §1"}, "Neu5Ac(a2-3)Gal": {"molecular_target": "Neu5Ac(a2-3)Gal", "procedure,_shortened": "as §1"}, "[19]": {"molecular_target": "Neu5Ac(a2-3)Gal(b1-3)GalNAc", "procedure,_shortened": "as §1"}, "[20]": {"molecular_target": "Neu5Ac(a2-3)Gal(b1-3)GalNAc(b1-3)Gal(a1-4)Gal(b1-4)Glc", "procedure,_shortened": "as §1"}, "[21]": {"molecular_target": "Neu5Ac(a2-3)Gal(b1-3)GalNAc(b1-4)[Neu5Ac(a2-3)]Gal(b1-4)Glc", "procedure,_shortened": "as §1"}, "[22]": {"molecular_target": "Neu5Ac(a2-3)Gal(b1-3)GalNAc(b1-4)[Neu5Ac(a2-8)Neu5Ac(a2-3)]Gal(b1-4)Glc", "procedure,_shortened": "as §1"}, "[23]": {"molecular_target": "Neu5Ac(a2-3)Gal(b1-3)GalNAc6S", "procedure,_shortened": "as §1"}, "[24]": {"molecular_target": "Neu5Ac(a2-3)Gal(b1-3)GlcNAc", "procedure,_shortened": "as §1"}, "[25]": {"molecular_target": "Neu5Ac(a2-3)Gal(b1-3)GlcNAc(b1-2)Man(a1-3)[GlcNAc(b1-4)][Neu5Ac(a2-3)Gal(b1-3)GlcNAc(b1-2)Man(a1-6)]Man(b1-4)GlcNAc(b1-4)GlcNAc", "procedure,_shortened": "as §1"}, "[26]": {"molecular_target": "Neu5Ac(a2-3)Gal(b1-3)GlcNAc(b1-3)Gal(b1-3)GlcNAc", "procedure,_shortened": "as §1"}, "[27]": {"molecular_target": "Neu5Ac(a2-3)Gal(b1-3)GlcNAc(b1-3)Gal(b1-4)GlcNAc", "procedure,_shortened": "as §1"}, "[28]": {"molecular_target": "Neu5Ac(a2-3)Gal(b1-3)GlcNAc(b1-3)GalNAc", "procedure,_shortened": "as §1"}, "[29]": {"molecular_target": "Neu5Ac(a2-3)Gal(b1-3)GlcNAc(b1-6)GalNAc", "procedure,_shortened": "as §1"}, "[30]": {"molecular_target": "Neu5Ac(a2-3)Gal(b1-3)GlcNAc6S", "procedure,_shortened": "as §1"}, "[31]": {"molecular_target": "Neu5Ac(a2-3)Gal(b1-3)[Fuc(a1-4)]GlcNAc", "procedure,_shortened": "as §1"}, "[32]": {"molecular_target": "Neu5Ac(a2-3)Gal(b1-3)[Fuc(a1-4)]GlcNAc(b1-3)Gal(b1-3)[Fuc(a1-4)]GlcNAc", "procedure,_shortened": "as §1"}}, "note": "The list shows a part of the results.", "data": [{"binder": "B1", "values": [{"measurement": "glycan array binding signal (z-score)", "setting": "[1]", "value": 20}, {"measurement": "glycan array binding signal (z-score)", "setting": "[2]", "value": -0.08}, {"measurement": "glycan array binding signal (z-score)", "setting": "[3]", "value": -0.073}, {"measurement": "glycan array binding signal (z-score)", "setting": "GlcNAc(b1-6)GalNAc", "value": -0.076}, {"measurement": "glycan array binding signal (z-score)", "setting": "GlcNAc3Prop(b1-4)GlcNAc", "value": -0.075}, {"measurement": "glycan array binding signal (z-score)", "setting": "[4]", "value": -0.055}, {"measurement": "glycan array binding signal (z-score)", "setting": "Kdn(a2-3)Gal(b1-3)GalNAc", "value": -0.068}, {"measurement": "glycan array binding signal (z-score)", "setting": "Kdn(a2-3)Gal(b1-3)GlcNAc", "value": -0.082}, {"measurement": "glycan array binding signal (z-score)", "setting": "Kdn(a2-3)Gal(b1-4)Glc", "value": -0.015}, {"measurement": "glycan array binding signal (z-score)", "setting": "Kdn(a2-3)Gal(b1-4)GlcNAc", "value": -0.058}, {"measurement": "glycan array binding signal (z-score)", "setting": "[5]", "value": -0.07}, {"measurement": "glycan array binding signal (z-score)", "setting": "Kdn(a2-6)Gal(b1-4)GlcNAc", "value": -0.075}, {"measurement": "glycan array binding signal (z-score)", "setting": "[6]", "value": -0.049}, {"measurement": "glycan array binding signal (z-score)", "setting": "[7]", "value": -0.068}, {"measurement": "glycan array binding signal (z-score)", "setting": "Man(a1-2)Man(a1-3)Man", "value": -0.073}, {"measurement": "glycan array binding signal (z-score)", "setting": "[8]", "value": -0.062}, {"measurement": "glycan array binding signal (z-score)", "setting": "[9]", "value": -0.076}, {"measurement": "glycan array binding signal (z-score)", "setting": "[10]", "value": -0.048}, {"measurement": "glycan array binding signal (z-score)", "setting": "[11]", "value": -0.068}, {"measurement": "glycan array binding signal (z-score)", "setting": "[12]", "value": -0.065}, {"measurement": "glycan array binding signal (z-score)", "setting": "[13]", "value": -0.074}, {"measurement": "glycan array binding signal (z-score)", "setting": "Man(a1-3)[Man(a1-6)]Man", "value": -0.045}, {"measurement": "glycan array binding signal (z-score)", "setting": "[14]", "value": -0.088}, {"measurement": "glycan array binding signal (z-score)", "setting": "[15]", "value": -0.076}, {"measurement": "glycan array binding signal (z-score)", "setting": "[16]", "value": -0.059}, {"measurement": "glycan array binding signal (z-score)", "setting": "[17]", "value": -0.069}, {"measurement": "glycan array binding signal (z-score)", "setting": "[18]", "value": -0.048}, {"measurement": "glycan array binding signal (z-score)", "setting": "Man(a1-6)Man", "value": -0.082}, {"measurement": "glycan array binding signal (z-score)", "setting": "Man(b1-4)GlcNAc", "value": -0.075}, {"measurement": "glycan array binding signal (z-score)", "setting": "Neu5Ac(a2-3)Gal", "value": -0.067}, {"measurement": "glycan array binding signal (z-score)", "setting": "[19]", "value": -0.074}, {"measurement": "glycan array binding signal (z-score)", "setting": "[20]", "value": -0.067}, {"measurement": "glycan array binding signal (z-score)", "setting": "[21]", "value": -0.055}, {"measurement": "glycan array binding signal (z-score)", "setting": "[22]", "value": -0.066}, {"measurement": "glycan array binding signal (z-score)", "setting": "[23]", "value": -0.086}, {"measurement": "glycan array binding signal (z-score)", "setting": "[24]", "value": -0.05}, {"measurement": "glycan array binding signal (z-score)", "setting": "[25]", "value": -0.072}, {"measurement": "glycan array binding signal (z-score)", "setting": "[26]", "value": -0.068}, {"measurement": "glycan array binding signal (z-score)", "setting": "[27]", "value": -0.074}, {"measurement": "glycan array binding signal (z-score)", "setting": "[28]", "value": -0.061}, {"measurement": "glycan array binding signal (z-score)", "setting": "[29]", "value": -0.061}, {"measurement": "glycan array binding signal (z-score)", "setting": "[30]", "value": -0.069}, {"measurement": "glycan array binding signal (z-score)", "setting": "[31]", "value": -0.06}, {"measurement": "glycan array binding signal (z-score)", "setting": "[32]", "value": -0.078}]}]}
